Test results taken from PubChem BioAssay AID624171 (National Center for Advancing Translational Sciences (NCATS), 2012).
The whole screen tested about 410,000 compounds, of which about 1,200 (0.29%) were called active. This list was built around the results that the source calls inconclusive (neither active nor inactive); the mix of calls is not that of the screen. The call rests on the fitted dose curve; in most records, active means well fitted activation curve with a large enough effect; inconclusive means small, poorly fitted or top-dose-only effect; inactive means flat fitted curve, though single readings scatter. Potencies of inconclusive entries are doubtful fits and often do not repeat.

test: qHTS of Nrf2 Activators; conditions: AREc32 ARE-luciferase reporter (MCF7-derived line), luminescence, 24 h; series mostly up to 46.1 µM; further: nearly all actives have a fitted effect of over 65% in size
Summary of the method: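 Luminescent ARE reporter assay in AREc32_Fluc cells: overnight plating at 37 deg C, 24 hr compound incubation, Steady-Glo added, 30 min RT before reading.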
Potency means the concentration at half of the fitted maximal effect; tags describe the fitted curve by direction and shape.

Q: For `CCc1ccc(/C=C2\SC(=S)N(CCCC(=O)Nc3ccccn3)C2=O)cc1`, which Potency is on record?
A: Its Potency is “inactive”.

Q: For `Cc1cc(C(=O)OCC(=O)NCc2ccco2)c(C)n1-c1ccc(F)cc1`, which Potency is on record?
A: The Potency was inconclusive: 25.1 µM [activator, partial curve, poor fit].

Q: With `O=C(CCS(=O)(=O)c1ccccc1)Nc1nc2cc3c(cc2s1)OCO3` as the compound, how does the Potency read?
A: Its Potency is inconclusive: 22.4 µM [activator, single point].

Q: For `COc1ccc(S(=O)(=O)Nc2cccc(-c3ccc(N4CCCC4)nn3)c2)cc1F`, which Potency is on record?
A: The Potency was “inactive”.

Q: For `CCOc1ccccc1C=NN=Cc1ccccc1O`, which Potency is on record?
A: Its Potency is inconclusive: 15.8 µM [activator, single point].

Q: For `CCS(=O)(=O)c1nc(S(=O)(=O)c2ccc(Cl)cc2)c(N2CCN(C)CC2)s1`, which Potency is on record?
A: Its Potency is inconclusive: 11.2 µM [activator, partial curve, poor fit].

Q: Which Potency does the source give for `O=C(Nc1nc2ccccc2[nH]1)c1cccc(F)c1` here?
A: Its Potency is inconclusive: 1.12 µM [activator, partial curve, poor fit].

Q: With `O=C(NN=C(c1ccccc1)c1ccccn1)c1ccccc1` as the compound, how does the Potency read?
A: The Potency was inconclusive: 35.5 µM [activator, single point].

Q: For `CC(C)N1CCc2c(sc(NC(=O)CCS(=O)(=O)c3ccccc3)c2C#N)C1`, which Potency is on record?
A: The Potency was inconclusive: 25.1 µM [activator, single point].

Q: Which Potency does the source give for `Oc1ccccc1C1=NC(c2ccccc2)NC(c2ccccc2)C1` (stereo not drawn) here?
A: Its Potency is inconclusive: 17.8 µM [activator, single point].

Q: With `CN(C)C(=O)COC(=O)/C=C/c1ccccc1[N+](=O)[O-]` as the compound, how does the Potency read?
A: The Potency was inconclusive: 17.8 µM [activator, partial curve, poor fit].

Q: With `CC(=O)Nc1nc(=O)c2ccccc2s1` as the compound, how does the Potency read?
A: Its Potency is inconclusive: 11.2 µM [activator, partial curve, poor fit].

Q: For `COC(=O)c1sccc1NC(=O)/C=C/c1c(Cl)cccc1Cl`, which Potency is on record?
A: Its Potency is inconclusive: 1.78 µM [activator, full curve, poor fit].

Q: Which Potency does the source give for `Cc1cc(NC(=O)C(Cl)c2ccccc2)no1` (stereo not drawn) here?
A: Its Potency is active: 12.6 µM.

Q: For `COc1ccc(/C=N/NC(=O)c2cccs2)c2ccccc12`, which Potency is on record?
A: The Potency was inconclusive: 11.2 µM [activator, partial curve].

Q: For `CCN(CC)CCN(CC(=O)N(C1CCCCC1)C1CCCCC1)C(=O)c1cccnc1`, which Potency is on record?
A: The Potency was “inactive”.

Q: Which Potency does the source give for `Cc1ccc(Sc2c(O)c3ccccc3n(C)c2=O)cc1` here?
A: Its Potency is “inactive”.

Q: For `Cc1ccc(CNC(=O)c2ccc3c(=O)c(O)c(-c4ccc(C)cc4)[nH]c3c2)cc1`, which Potency is on record?
A: Its Potency is “inactive”.

Q: For `O=C(OCc1c(-c2ccccc2)ncc2ccccc12)c1cccs1`, which Potency is on record?
A: Its Potency is inconclusive: 17.8 µM [activator, single point].

Q: For `Oc1ccccc1-c1csc(-c2ccccc2)n1`, which Potency is on record?
A: Its Potency is inconclusive: 3.98 µM [activator, full curve].

Q: With `CC(C)C(=O)C1=Cc2cccc([N+](=O)[O-])c2OC1N1CCOCC1` (stereo not drawn) as the compound, how does the Potency read?
A: The Potency was inconclusive: 22.4 µM [activator, single point].

Q: With `Cc1ccc(Nc2cc(C(=O)NC3CCCC3)c3ccccc3n2)cc1C` as the compound, how does the Potency read?
A: Its Potency is “inactive”.

Q: For `CN(C)S(=O)(=O)c1cccc(NC(=S)N/N=C/c2ccco2)c1`, which Potency is on record?
A: The Potency was inconclusive: 11.2 µM [activator, partial curve, poor fit].

Q: Which Potency does the source give for `O=C(N/N=C/c1ccc([N+](=O)[O-])o1)c1cc(-c2cccc(Br)c2)nc2ccccc12` here?
A: Its Potency is inconclusive: 14.1 µM [activator, partial curve, poor fit].

Q: For `COc1cccc(N(C(=O)CCl)C(C(=O)NCCc2ccccc2)c2cccs2)c1` (stereo not drawn), which Potency is on record?
A: Its Potency is inconclusive: 3.55 µM [activator, single point].

Q: Which Potency does the source give for `CCOC(=O)C1=C(c2ccccc2)N=c2s/c(=C\c3ccco3)c(=O)n2C1c1cccs1` (stereo not drawn) here?
A: The Potency was inconclusive: 14.1 µM [activator, single point].

Q: Which Potency does the source give for `CC1(C)O[C@@H]2C[C@H]3[C@@H]4CCC5=CC(=O)C=C[C@]5(C)[C@@]4(F)[C@@H](O)C[C@]3(C)[C@]2(C(=O)CO)O1` here?
A: The Potency was “inactive”.

Q: With `Fc1ccc(/C=N/Nc2ccccn2)cc1` as the compound, how does the Potency read?
A: Its Potency is inconclusive: 11.2 µM [activator, partial curve].

Q: Which Potency does the source give for `CCOCCCNC(=O)/C=C1\Sc2ccccc2N(Cc2ccccc2F)C1=O` here?
A: The Potency was inconclusive: 15.8 µM [activator, partial curve, poor fit].

Q: Which Potency does the source give for `Cc1oc2c(c1C(=O)c1ccc(Cl)cc1)C(=O)C(=O)c1ccccc1-2` here?
A: Its Potency is “inactive”.

Q: Which Potency does the source give for `O=C(COC(=O)c1ccc(Cl)s1)c1cc2ccccc2o1` here?
A: The Potency was inconclusive: 11.2 µM [activator, partial curve].

Q: Which Potency does the source give for `O=C(O)CCCN1C(=O)/C(=C/c2ccncc2)SC1=S` here?
A: The Potency was inconclusive: 14.1 µM [activator, single point].

Q: For `Cc1cc(N2C(=O)C3CC=CC(C)C3C2=O)no1` (stereo not drawn), which Potency is on record?
A: The Potency was “inactive”.

Q: For `COc1cc(NCCC(=O)c2cccs2)c(OC)cc1Cl`, which Potency is on record?
A: Its Potency is inconclusive: 22.4 µM [activator, partial curve, poor fit].

Q: With `O=C(Nc1nc(-c2cccc([N+](=O)[O-])c2)cs1)C(c1ccccc1)c1ccccc1` as the compound, how does the Potency read?
A: Its Potency is “inactive”.

Q: For `Cc1oc(C)c2c(=O)ccc3c(c12)OC(N)=C(C#N)C3c1ccccc1` (stereo not drawn), which Potency is on record?
A: The Potency was inconclusive: 35.5 µM [activator, partial curve, poor fit].

Q: Which Potency does the source give for `COc1cccc2sc(N3CCN(C(=O)c4ccc([N+](=O)[O-])o4)CC3)nc12` here?
A: The Potency was inconclusive: 3.55 µM [activator, single point].

Q: For `Cc1nnc(SCC(=O)Nc2ccc3c(c2)OCO3)n(N)c1=O`, which Potency is on record?
A: Its Potency is “inactive”.

Q: With `Cc1ccc(-c2cc(C(=O)NCc3ccccn3)c3ccccc3n2)cc1` as the compound, how does the Potency read?
A: Its Potency is “inactive”.

Q: Which Potency does the source give for `O=S(=O)(Nc1cccc2ncccc12)c1cccs1` here?
A: The Potency was inconclusive: 5.01 µM [activator, single point].

Q: With `COC(=O)c1sc(-c2ccc(Cl)cc2)cc1NC(=O)/C=C/C(=O)O` as the compound, how does the Potency read?
A: Its Potency is active: 8.91 µM.

Q: With `COC(=O)CCCCCN1C(=O)/C(=C\c2ccncc2)SC1=S` as the compound, how does the Potency read?
A: The Potency was inconclusive: 17.8 µM [activator, single point].

Q: Which Potency does the source give for `COc1ccc(NC(=O)c2cc(-c3ccco3)on2)c(OC)c1` here?
A: The Potency was inconclusive: 1.78 µM [activator, full curve, poor fit].

Q: With `Cc1ccc(C2C(C(=O)c3cc4ccccc4o3)=C(O)C(=O)N2CCN(C)C)o1` (stereo not drawn) as the compound, how does the Potency read?
A: Its Potency is inconclusive: 20 µM [activator, single point].

Q: With `CCc1cc(C=NC2CCCCC2)c(O)s1` as the compound, how does the Potency read?
A: The Potency was inconclusive: 35.5 µM [activator, single point].

Q: Which Potency does the source give for `CN(C)c1nc(=NCc2cccs2)ss1` here?
A: The Potency was inconclusive: 28.2 µM [activator, single point].

Q: With `C/C(=N\NC(=O)c1cc(C)nc2ccccc12)c1ccccn1` as the compound, how does the Potency read?
A: Its Potency is inconclusive: 25.1 µM [activator, single point].

Q: With `COc1cc(/C=C2\SC(=S)N(CCC(=O)N3CCN(C)CC3)C2=O)cc(OC)c1OC` as the compound, how does the Potency read?
A: The Potency was inconclusive: 11.2 µM [activator, single point].

Q: With `COC(=O)Cc1c(C)c2ccc(O)c(CN3CCCC(C)C3)c2oc1=O` (stereo not drawn) as the compound, how does the Potency read?
A: Its Potency is “inactive”.

Q: With `CC(=O)c1cccc(NC(=O)c2cnn(-c3cccc(C)c3)c2-n2cccc2)c1` as the compound, how does the Potency read?
A: Its Potency is “inactive”.

Q: With `COc1ccc(Cc2c(-c3ccc(F)cc3)nc3c4ccccc4ccn23)c(C)c1` as the compound, how does the Potency read?
A: Its Potency is inconclusive: 14.1 µM [activator, partial curve, poor fit].

Q: Which Potency does the source give for `COc1ccc(-c2nc(N)ncc2-c2ccccc2)c(O)c1` here?
A: The Potency was “inactive”.

Q: For `CCc1nnc(NC(=O)CCS(=O)(=O)c2ccc(C)cc2)s1`, which Potency is on record?
A: Its Potency is inconclusive: 22.4 µM [activator, single point].

Q: With `COc1ccc2nc(N(CCN(C)C)C(=O)/C=C/c3cccs3)sc2c1` as the compound, how does the Potency read?
A: Its Potency is active: 10 µM.

Q: Which Potency does the source give for `COc1ccc(CN(C(=O)c2ccc(-c3ccccc3)[nH]2)C(C(=O)NC(C)(C)C)c2ccncc2)cc1` (stereo not drawn) here?
A: The Potency was inconclusive: 31.6 µM [activator, single point].

Q: For `CN(CCO)c1ccc(C=NNc2ccc([N+](=O)[O-])cc2S(=O)(=O)Nc2ccccc2C(=O)O)cc1`, which Potency is on record?
A: Its Potency is “inactive”.

Q: Which Potency does the source give for `COc1ccc(C(=O)Sc2ccc(C)cc2)cc1OC` here?
A: The Potency was inconclusive: 22.4 µM [activator, single point].

Q: Which Potency does the source give for `O=Cc1cccn1-c1nccc(-c2ccco2)n1` here?
A: Its Potency is inconclusive: 11.2 µM [activator, partial curve, poor fit].

Q: For `O=C(Nc1ccc2c(c1)OCCO2)c1c[nH]c(=O)n(-c2ccc(F)c(Cl)c2)c1=O`, which Potency is on record?
A: Its Potency is “inactive”.

Q: With `CCn1c(=S)[nH]c2cc(S(=O)(=O)N3CCCCC3)ccc21` as the compound, how does the Potency read?
A: The Potency was inconclusive: 14.1 µM [activator, single point].

Q: With `CCn1c(-c2cc(-c3ccc(OC(C)C)cc3)nc3ccccc23)n[nH]c1=S` as the compound, how does the Potency read?
A: The Potency was “inactive”.

Q: With `O=C(Nc1nc2ccsc2c(=O)s1)c1ccco1` as the compound, how does the Potency read?
A: Its Potency is active: 1.26 µM.

Q: With `CCc1ccc(NC(=O)CSC2=Nc3ccccc3C3=NC(CCC(=O)NCc4ccccc4OC)C(=O)N23)cc1` (stereo not drawn) as the compound, how does the Potency read?
A: The Potency was “inactive”.

Q: With `CCN1C(=O)c2cccc3c(S(=O)(=O)Nc4nc(C)cs4)ccc1c23` as the compound, how does the Potency read?
A: Its Potency is inconclusive: 20 µM [activator, single point].

Q: For `CC(=O)Oc1cccc(/C=c2\sc3nc(-c4ccco4)nn3c2=O)c1`, which Potency is on record?
A: Its Potency is inconclusive: 22.4 µM [activator, single point].

Q: Which Potency does the source give for `CC(C)N1C(=O)/C(=C\c2nc3ccccc3c(=O)[nH]2)c2ccccc21` here?
A: Its Potency is inconclusive: 25.1 µM [activator, single point].

Q: For `CCSc1nc(N)nc(-c2cccs2)c1C#N`, which Potency is on record?
A: The Potency was inconclusive: 2.82 µM [activator, partial curve, poor fit].

Q: Which Potency does the source give for `C#CCOCCOCCOCCNc1nc(N2CCN(C(=O)CCCCCCCCCCNC(=O)[C@@H](CCSC)n3cc(CCO)nn3)CC2)nc(N2CCN(C(=O)CCCCCCCCCCNC(=O)[C@H]([C@@H](C)CC)n3cc(CCCCCN)nn3)CC2)n1` here?
A: The Potency was “inactive”.
